According to patent publication US20230203471A1, “METHOD AND PLATFORM FOR DISRUPTING INTRACELLULAR MICROTUBULES” (National Tsing Hua University, priority 2021, published 2023):

B1: dNSpastin3Q-YFP-FKBP: truncated spastin with key MT-binding residues mutated to three glutamines (SEQ ID NO:6), tagged with YFP-FKBP (protein)
chain: MESGAVPKRKDPLTHASNSLPRSKTVLKSGSAGLSGHHRAPSCSGLSMVSGARPGPGPAATTHKGTPKPNRTNKPSTPTTAVRQQQDLKNFRNVDSNLANLIMNEIVDNGTAVKFDDIAGQELAKQALQEIVILPSLRPELFTGLRAPARGLLLFGPPGNGKTMLAKAVAAESNATFFNISAASLTSKYVGEGEKLVRALFAVARELQPSIIFIDEVDSLLCERREGEHDASRRLKTEFLIEFDGVQSAGDDRVLVMGATNRPQELDEAVLRRFIKRVYVSLPNEETRLLLLKNLLCKQGSPLTQKELAQLARMTDGYSGSDLTALAKDAALGPIRELKPEQVKNMSASEMRNIRLSDFTESLKKIKRSVSPQTLEAYIRWNKDFGDTT[about 100 residues omitted]
B2: dNSpastinCD-YFP-FKBP: catalytic domain of dNSpastin without the MT-binding domain (SEQ ID NO:5), tagged with YFP-FKBP (protein)
chain: MIVDNGTAVKFDDIAGQELAKQALQEIVILPSLRPELFTGLRAPARGLLLFGPPGNGKTMLAKAVAAESNATFFNISAASLTSKYVGEGEKLVRALFAVARELQPSIIFIDEVDSLLCERREGEHDASRRLKTEFLIEFDGVQSAGDDRVLVMGATNRPQELDEAVLRRFIKRVYVSLPNEETRLLLLKNLLCKQGSPLTQKELAQLARMTDGYSGSDLTALAKDAALGPIRELKPEQVKNMSASEMRNIRLSDFTESLKKIKRSVSPQTLEAYIRWNKDFGDTT[about 100 residues omitted]
B3: dNSpastin3QED-YFP-FKBP: enzyme-inactive (enzyme dead) dNSpastin3Q (SEQ ID NO:7) tagged with YFP-FKBP (protein)
chain: MESGAVPKRKDPLTHASNSLPRSKTVLKSGSAGLSGHHRAPSCSGLSMVSGARPGPGPAATTHKGTPKPNRTNKPSTPTTAVRQQQDLKNFRNVDSNLANLIMNEIVDNGTAVKFDDIAGQELAKQALQEIVILPSLRPELFTGLRAPARGLLLFGPPGNGKTMLAKAVAAESNATFFNISAASLTSKYVGEGEKLVRALFAVARELQPSIIFIDAVDSLLCERREGEHDASRRLKTEFLIEFDGVQSAGDDRVLVMGATNRPQELDEAVLRRFIKRVYVSLPNEETRLLLLKNLLCKQGSPLTQKELAQLARMTDGYSGSDLTALAKDAALGPIRELKPEQVKNMSASEMRNIRLSDFTESLKKIKRSVSPQTLEAYIRWNKDFGDTT[about 100 residues omitted]

Key:
[1] = tested on: intracellular microtubules in HeLa cells; assay: Live-cell imaging of MT disruption (MT filament area) in transfected HeLa cells; type: cell-based; conditions: for MT disruption on recruitment onto MTs: HeLa cells, rapamycin 100 nM, live-cell imaging
Description: (§1) The procedures of live-cell imaging are as follows. Live transfected cells cultured on poly(d-lysine)-coated glass coverslips (Hecht Assistent) were treated with either 100 nM rapamycin for rapid induction of protein dimerization and translocation or MT-targeting agents (10 µM nocodazole or 500 µM colchicine) during imaging. Live-cell imaging was conducted on a Nikon T1 inverted fluorescence microscope (Nikon) with a 60× oil objective (Nikon), a Prime camera (Photometrics), and 37° C., 5% CO2 heat stage (Live Cell Instrument). Rapid recruitment of proteins of interest (POIs) was imaged at 5- or 10-sec intervals, whereas the process of MT disruption was imaged at 1-min intervals. Images were obtained using Nikon NIS-Elements AR software and processed with Huygens Deconvolution Software (Scientific Volume Imaging). Image analysis was mainly performed with Nikon NIS-Elements AR software.
The procedures of measurement of MT filament area are as follows. The MT filaments in living cells were labeled with EMTB-CFP-FRB and imaged in real time (RAW image). The rolling ball correction was used to remove the cytosol background from the RAW images, which was carried out with the Nikon NIS-Elements AR software. Images were processed to generate the binary MT filament pattern via the Otsu threshold and analyzed by Fiji software.
FIGS. 2D and 2E show rapidly recruiting engineered spastins onto MTs. […] The top three layers are cells that simultaneously express EMTB-CFP-FRB and dNSpastin3Q-YFP-FKBP. The lower three layers are cells that simultaneously express EMTB-CFP-FRB and dNSpastin-YFP-FKBP-C2Lact. The color bar on the right indicates the brightness value represented by the color of the FRET signal. […]

[2] = tested on: EMTB-CFP-FRB-labeled MTs in HeLa cells; assay: Rapamycin-induced translocation of FKBP-tagged proteins onto EMTB-CFP-FRB-labeled MTs (FRET, live-cell imaging); type: cell-based; conditions: 100 nM rapamycin, FRET signal
Description: as §1
FIGS. 1B and 1C show the MT-binding domain of ensconsin-cyan fluorescent protein-FKBP-rapamycin binding domain (EMTB—CFP—FRB) localizes to cytosolic MTs. […] Scale bar, 10 µm. […] Subsequently, the addition of rapamycin to HeLa cells led to the rapid translocation of yellow fluorescent protein-tagged FKBP (YFP—FKBP) onto EMTB—CFP—FRB-labeled MTs as evidenced by an increased FRET (fluorescence resonance energy transfer) signal on MTs (T½ of translocation: 5.73 ± 0.54 sec; FIGS. 1D and 1E). […]

[3] = tested on: cytosolic MTs in HeLa cells; assay: Immunofluorescence staining of α-tubulin in HeLa cells expressing spastin constructs; type: cell-based; conditions: HeLa cells co-transfected with EMTB-CFP-FRB
Description: The procedures of immunofluorescence staining are as follows. Cells cultured in borosilicate glass Lab-Tek eight-well chambers (Nunc) were fixed in 4% paraformaldehyde (Electron Microscopy Sciences) at room temperature for 15 min. Fixed cells were permeabilized with 0.1% Triton X-100 and then incubated in blocking solution (phosphate-buffered saline with 2% bovine serum albumin) for 30 min at room temperature. To label cytosolic MTs, primary ciliary membrane, and axonemal MTs, cells were incubated for 1 hr at room temperature with mouse antibody against α-tubulin (1:500; Sigma Aldrich, T6199), rabbit antibody against Arl13b (1:500; Proteintech, 17711-1-AP), mouse antibody against glutamylated tubulin (1:100; Adipogen, AG-20B-0020-C100), mouse antibody against acetylated tubulin (1:500; Sigma Aldrich, T7451), rat antibody against tyrosinated tubulin (1:100; Sigma Aldrich, MAB1864), and mouse antibody against detyrosinated tubulin (1:100; MERCK, AB3201) each of which was diluted in blocking solution. Cells were then washed with PBS and incubated for 1 hr with appropriate secondary antibodies (1:1000 dilution; Thermo Fisher) at room temperature.
Spastin is a MT-cleaving enzyme that is ubiquitous in nearly all eukaryotic cells. Expression of full-length spastin (SpastinFL-YFP; the amino acid sequence of spastin is SEQ ID NO: 1) and truncated spastin without the N-terminal 1-140 amino acids (dNSpastin-YFP) in HeLa cells removed significant amounts of cytosolic MTs, 47.45% and 42.86%, respectively, relative to YFP-transfected control cells (See FIGS. 2A to 2C). This means that both full-length spastin and truncated spastin without N-terminal 1-140 amino acids have the effect on disrupting microtubules. FIGS. 2A to 2C show the microtubule cleavage activity of artificially engineered spastin enzyme. […] The dotted line on the right indicates the periphery of the cell that expresses spastin. […] SpastinFL expressed in cells can disrupt the intracellular microtubules. […]

[4] = tested on: ciliary axonemes and primary cilia in NIH3T3 cells; assay: Disruption of primary cilia in serum-starved NIH3T3 cells (live-cell imaging); type: cell-based, mouse; conditions: rapamycin 100 nM
Description: The procedures of cell culture and transfection are as follows. African green monkey kidney cell line COS7 (CRL-1651), cervical cancer cell line HeLa (CCL-2), human osteosarcoma cell line U2OS (HTB-96), human embryonic kidney cell line HEK293T (CRL-3216), and mouse embryonic fibroblasts NIH3T3 cells (CRL-1658) were maintained at 37° C., 5% CO2, and 95% humidity in Dulbecco’s modified Eagle’s medium (DMEM) supplemented with 10% fetal bovine serum (FBS), and penicillin and streptomycin (Corning). To induce ciliogenesis, NIH3T3 cells were serum starved for 24 hr. COS7 cells were transfected with plasmid DNAs by using TurboFect transfection reagents (Thermo Fisher). HeLa, U2OS, HEK293T, and NIH3T3 cells were transfected with FuGENE HD (Promega). Transfected cells were incubated for 24-48 hr prior to imaging and other experiments.
The procedures of live-cell imaging are as follows. Live transfected cells cultured on poly(d-lysine)-coated glass coverslips (Hecht Assistent) were treated with either 100 nM rapamycin for rapid induction of protein dimerization and translocation or MT-targeting agents (10 µM nocodazole or 500 µM colchicine) during imaging. Live-cell imaging was conducted on a Nikon T1 inverted fluorescence microscope (Nikon) with a 60× oil objective (Nikon), a Prime camera (Photometrics), and 37° C., 5% CO2 heat stage (Live Cell Instrument). […]

Molecule | T½ of MT disruption ([1]; HeLa cells co-transfected with EMTB-CFP-FRB, upon rapamycin (100 nM) treatment) [min] | MT disruption on recruitment onto MTs [1] | T½ of translocation from cytosol onto EMTB-CFP-FRB-labeled MTs [2] [min] | MT disruption after rapamycin treatment ([3]; 100 nM rapamycin 1 hr) | MT-severing activity before rapamycin treatment ([3]; 0.1% DMSO) | severing activity before and after recruitment onto MTs ([3]; DMSO or rapamycin) | effect on ciliary structure when trapped on ciliary axonemes [4]
B1 | 11.05 ± 1.52 | significantly removed more MT filaments | 1.006 ± 0.0883 | robustly disrupted MTs | low MT-severing activities | – | –
B2 | – | – | – | – | – | did not show severing activity | –
B3 | – | no MT disruption | – | – | – | – | did not perturb the ciliary structure
